According to the RNAGym collection of RNA variant scans (doi:10.7554/elife.90254):
The source gives no read counts; variants with many changes may rest on few reads.

B1: LINE1-mini (parent)
chain: GGCAGAGCUCAACACAGCGUGGCAAAGUGGCUGUGGCUAGACUGCC

Variants of: B1
Assay: self-cleavage, relative activity (ratio to wild type); higher = more cleavage; in vitro, sequencing; the parent is a self-cleaving ribozyme

Variant	self-cleavage
GGCAGAGCUCAACACAUCGUGGCAUAUUGGCUGUGACUAAACUGCC	0.03
AGCAAAGCUCAACACAGCGUGGCAAAGUGGCUGUGCCUAGACUGCC	0.21
GGCAGACCUCAACACAGCGUGGCAAAUUGGCUGUGGCUAGAGUGCC	0.07
GGCAGAGCUCAACGCACCGGGGCAAAGUGGCUGUGGCUAGACUGCC	0.03
GGCAGCGCUCAACACAGCGUGGCAAAUUGGCUCUGGCUAGACUGCC	0.07
GGCAGGGCUCAACGCAGAGUGGGAAAGUGGCCGUGGCCAGACUGCC	0
CGCAGAGCACAACACAGUGCGGCAAAGUGGCUGUGGCUAGACUGCC	0
GGCAGAGCUCAUCACAGCGUGGCAAAGUGGUUUUGGCUAGACAGCC	0
GGCAGAGCUCAACACAGCGUGGCAACGUGGCUGUGUCUAGACUACC	0.15
GUCAGAGCUCAACACACCGUGGCAAAGUGGCUGUAACUAGACUGCC	0.07
GGCAAAGCUUGACACAGCGUGGCAAAGUGGCUCUGGCUAGACUGCC	0.01
GGCAGAGCUCAACAUAGCGGGGCAAGGUGGCUGUGGCUAGACUGCC	0.19
GGCAGAGCACAACACAGCGUGGCUAAGUGGCUGUGGCUAGACUCCC	0.05
GGCAGAGCUCAACACAGCGCGGCAAAGUGGCUAUGUCAAGACUGCC	0.08
GACAGAGCUAAACACAGGGUGGCAAAGUGGCUGUGUCUAGACUGCC	0.04
GGCAGAGCUCAACACAGCAUGGAAAAGUGCCUGUGGCUAGUCUGCC	0.74
GGUAGAGCUCAACACACCGUGGCUAAGUGCCUGUGGCUAUACUGUC	0.02
GGCAGAGCUCAACACAGCGUGGCAAAGGGGCAGUGGCCAGACUGCC	0.12
GGCAGUGCUCAACACAGCGCGGCAAAGUGGCUGCGGUUUGACUGCC	0.1

Variant	self-cleavage
GGCAGAGCUUAACGCAGCGUGGCAAAGUGGGUGUGGCUAGACUGCG	0.07
GGCAGAGCUCAACACAGCGGGGCAAAGUGGAUGUGGUUAGACUGCC	0.03
GGCAGAGGUCAACACAGCAUGGCAAUGUGGCGGUGGCUAGACUGCC	0.01
GGCAGAGCUCAUCACAGCGUGGCAAAGUGGAUGCGGCUAGACUGCC	0.03
GGCAGAGCUUAACACCGCGUGGCAAAGUGCCUGUGGCUAGACUGCC	0.09
GGCUGAGCUCAACACAGCGUGGCAAAGCGGGUGUGGCUAGACUGCC	0.02
GUCAGAGAUCAACACAGGGAGGCAAAGUGGCUGUGGCUCGACUGCC	0.01
GGCAGAGCUCAAAACGGCGUGGCAAAGUGUCUGUGGCUAGACUGCC	0.02
GGCAGAGCUGACCACAGCGUGGCAAAGUGGCUGUGUCUACACUGAC	0.01
GGCAGAGCUCAAUACAGGGUGGCAAAGUGGCUGUGGCUAGACAGCC	0.02
GGCAGAGCUCAUCACAGCAUGGCAAAGUGAAUGUGGCUAGACUGCC	0.09
GGCAGAGCUCAACACAGCGUGGCAAAGUGGCUGUUGCUAUACAGCC	0.04
GCCCGAGCUCUACACAGCGCGGCAAAGUCGCUGUGGCUAGACUGCC	0.02
GGCAGAGCUCAACACAGCGAGGCAAAGUGGCUGUGGCUAGACUUCU	0.06
GGCAGAACUCAACACGGCGUGGCAAAGUGGCUGUGGCUAGAUUGCC	0.09
GGAAGAGCUAAACACAGCGUGGCAAAGUGGCUCUCGCUAGACUGCC	0.04
GGCAGAGCCCGACACAGCGUGGCAAGGUGGCUGUCGCCAGAGUGCC	0
GGCAGAGCUCAACACAACGUUGCAAAGUGGCUGUGGCUGGACUGCC	0.1
GGCAGAGCUCUACACAGCGUGGCAAAGUGGCUGUGGCUCGACAGCC	0.02

Variant	self-cleavage
GGUAGACCUCAACACAGCGUGGCAAAGUAGCUGUGGCUAGAGUGCA	0.05
GGCAGAGCUCAACACAGUGUGGCAAAGUUGCUGUGUCUAGACUGCC	0.36
GGAAGAGCUCAACAUAGGGUGGCAAAGUGGCUGUGGCUAGACUGCC	0.14
GGCAGAGCUCAUGACAGCGUGGCCAACUGGCUGUGGCUAGACUGCC	0.01
GUCAGAGCUCAAGACAGCGUGGCAAAGUGGCUGUCGCUCGACUGCC	0.03
GGCAGAGCUCUACAAGGCGUGGCAAAGUGGCUGUGGCUACACUGCC	0.01
GGCAGAGAUCAACACAGCGUGGCAAAGUAGCUGUGGCACGACUGCC	0.15
GGCAGAGCUCAACAAAGCUUGGCAAAGUGGCUGGGGCUAGACUGCC	0.01
UUCAGAGCUCAAUACAGCGUGGCAAAUUGGCUGUGGCCAGACUGCC	0.01
GUCAGAGCUCAACACAGCAUGGCAAAGUGUCUGUAGCUAGACUUCC	0.02
GGCAGAGCUAAACACAGCGUGGCACAGUGGCUGUGGCUAGACUGCA	0.02
GGCAGAGCUCACCACAGCGGGGCGAAAUGGCUGUGGCUAGACUGCC	0.02
GGCAGAGCUCAACACAGCGUGGCUAGGUGGCUCUGGAUAUACUGCC	0.03
GGCAGAGCUUAGUACAGCGUGGCAAAGUGGAUGUGGCUAGACUUCC	0.04
GGCAGAGCUCGAUACAGCGUGGCAAAGUGGCUGUGGCUAUACUGCC	0.02
GGCAGAGCUGAACACAGCGUGGCAAAGUGGCAGUGGCUGGACUGCC	0
GGCAGAGCUUAACACAUCGUGGCAAGCUGGCUGUGGCUAGACUGCC	0.02
GGCAGAGCUCGACACAGCCUGGCAAACUGGCUGUGCCUAGACUGCC	0.02
